From the RNAGym collection of RNA variant scans (doi:10.7554/elife.90254)
The source gives no read counts; variants with many changes may rest on few reads.

B1: LINE1-mini (parent)
chain: GGCAGAGCUCAACACAGCGUGGCAAAGUGGCUGUGGCUAGACUGCC

Variants of: B1
Test: self-cleavage, relative activity (ratio to wild type); higher = more cleavage; in vitro, sequencing; the parent is a self-cleaving ribozyme
In the case of GGGAGAGCUCAACACAUCGUGGGAAAGUGGCUGUGGCUAGACUGCC [C3G G17U C23G], the self-cleavage is reported as 0.07.
Work on GGGAGAGCUCAACACAUCGUGGCAAAGUGGCUGUGGAUAGACUGAG [C3G G17U C37A C45A C46G] yielded a self-cleavage of 0.02.
Variant GGGAGAGCUCAACACAUCUUGGCAAAGUGGCUGUGGCGAGACUGCC [C3G G17U G19U U38G] has a self-cleavage of 0.03.
Work on GGGAGAGCUCAACACAUCGUGACAAAGUGGCUGUAGCUAGACUGCA [C3G G17U G22A G35A C46A] yielded a self-cleavage of 0.53.
Work on GGGAGAGCUCAACACAUCGUGACAAAGUGGCCGAGGCUAGACUGCC [C3G G17U G22A U32C U34A] yielded a self-cleavage of 0.11.
Work on GGGAGAGCUCAACACAUCGGGGCAAAGUGGCUGUGGCUAGACUGCC [C3G G17U U20G] yielded a self-cleavage of 0.04.
Work on GGGAGAGCUCAACACAUCGUGGCAAAGUGGCUGGGCCUAGACUGCC [C3G G17U U34G G36C] yielded a self-cleavage of 0.05.
GGGAGAGCUCAACACAGCAUGGUAAAGUGGCUGAGGCUAGACUGCC [C3G G19A C23U U34A] gave a self-cleavage of 0.14.
In the case of GGGAGAGCUCAACACAGCAUGGCAAAGUUGCUGUGGCUAGACUGCG [C3G G19A G29U C46G], the self-cleavage is reported as 0.2.
For GGGAGAGCUCAACACAGCAUGGCAAAGUGUCUGUGGCUAGACUGCC [C3G G19A G30U], the self-cleavage was 0.67.
With GGGAGAGCUCAACACAGCAUGGCAAAGGGGCUGUGGCUAUACUGCC [C3G G19A U28G G40U] the self-cleavage was 0.04.
With GGGAGAGCUCAACACAGCCUGGCAAAGUGGCUGUGGUUAGACUGCC [C3G G19C C37U] the self-cleavage was 0.02.
GGGAGAGCUCAACACAGCCUGGCAAAGUGGCUGUGGCUAGACUGAC [C3G G19C C45A] showed a self-cleavage of 0.29.
For GGGAGAGCUCAACACAGCCUGGCAAAGGGGCUGCGGCUAGACUGCC [C3G G19C U28G U34C], the self-cleavage was 0.15.
With GGGAGAGCUCAACACAGCUUGGCAACGUGGCAGGGGCUAGACUGCC [C3G G19U A26C U32A U34G] the self-cleavage was 0.08.
Work on GGGAGAGCUCAACACAGCUUAGCUAAGUGGCUGUGGCUAGACUGCC [C3G G19U G21A A24U] yielded a self-cleavage of 0.97.
Variant GGGAGAGCUCAACACAGCUUUACAAAUUGGCUGUGGCUAGACCGCC [C3G G19U G21U G22A G27U U43C] has a self-cleavage of 0.02.
GGGAGAGCUCAACACAGCUUGGCAAAAUGGCUGUGGCUAGACAGCC [C3G G19U G27A U43A] gave a self-cleavage of 0.05.
GGGAGAGCUCAACACAGCUUGGCAAAGUGCCUGUGGCUAGACUGCA [C3G G19U G30C C46A] showed a self-cleavage of 0.05.
GGGAGAGCUCAACACAGCGUAGCUAAGUGGCUGUGGCUAGACUGCC [C3G G21A A24U] gave a self-cleavage of 0.11.
GGGAGAGCUCAACACAGCGUAGCAACGUGGCUGUGGCUAGACUGCC [C3G G21A A26C] showed a self-cleavage of 0.28.
Variant GGGAGAGCUCAACACAGCGUAGCAAAGUGGCUGUGGAUAUACUGCC [C3G G21A C37A G40U] has a self-cleavage of 0.33.
In the case of GGGAGAGCUCAACACAGCGUCGCGAAGUGGCUGUGGCUAGACUGCC [C3G G21C A24G], the self-cleavage is reported as 0.06.
Work on GGGAGAGCUCAACACAGCGUCGCAAAGUGGCUGUGGCUAGACUGAC [C3G G21C C45A] yielded a self-cleavage of 1.38.
With GGGAGAGCUCAACACAGCGUCGCAAAGUGGCUGUGGCUAGACUGUC [C3G G21C C45U] the self-cleavage was 0.1.
In the case of GGGAGAGCUCAACACAGCGUCACAAUGUGGCUGUGGCUAGACUGUC [C3G G21C G22A A26U C45U], the self-cleavage is reported as 0.19.
For GGGAGAGCUCAACACAGCGUCGCAAAGUAGCUGUGGCUAGACUGCC [C3G G21C G29A], the self-cleavage was 0.02.
Work on GGGAGAGCUCAACACAGCGUUGCACAGUGGCUGUGGCCAGACUGCC [C3G G21U A25C U38C] yielded a self-cleavage of 0.23.
Work on GGGAGAGCUCAACACAGCGUUGCAAAGUGGGUGUGGCUAGACUGCC [C3G G21U C31G] yielded a self-cleavage of 0.04.
With GGGAGAGCUCAACACAGCGUUGCAAAGUGGCUGUGGCUAGAGUGCC [C3G G21U C42G] the self-cleavage was 0.31.
GGGAGAGCUCAACACAGCGUUGCAAAGUGGCUGUGGCUAGACUGUC [C3G G21U C45U] gave a self-cleavage of 0.07.
GGGAGAGCUCAACACAGCGUUGCAAAGUGGCUUUGGCUAGACUGCC [C3G G21U G33U] gave a self-cleavage of 0.23.
GGGAGAGCUCAACACAGCGUGAAAAAGUGACUGUGGCUAAACUGCC [C3G G22A C23A G30A G40A] showed a self-cleavage of 0.09.
Variant GGGAGAGCUCAACACAGCGUGACAAAGUGGGUGUGGCUAGACUGCC [C3G G22A C31G] has a self-cleavage of 0.09.
Variant GGGAGAGCUCAACACAGCGUGACAAAGUGGCUGCGGCUAGACUGCG [C3G G22A U34C C46G] has a self-cleavage of 0.08.
With GGGAGAGCUCAACACAGCGUGCCAAAGUCGCUGUGGCUACACUGCU [C3G G22C G29C G40C C46U] the self-cleavage was 0.04.
With GGGAGAGCUCAACACAGCGUGUCACAGUGGCUGUGGCUAGACUGCC [C3G G22U A25C] the self-cleavage was 0.33.
Work on GGGAGAGCUCAACACAGCGUGUCAAAGUGGCUGUGGUUAGACUGCC [C3G G22U C37U] yielded a self-cleavage of 0.08.
GGGAGAGCUCAACACAGCGUGGCAAAAUGACUGUGGCUAGACUGCC [C3G G27A G30A] showed a self-cleavage of 0.2.
With GGGAGAGCUCAACACAGCGUGGCAAAAUGGCCGUGGCUAGACUGCC [C3G G27A U32C] the self-cleavage was 0.04.
For GGGAGAGCUCAACACAGCGUGGCAAAAUGGCUGUGGCUAGACGGGC [C3G G27A U43G C45G], the self-cleavage was 0.02.
GGGAGAGCUCAACACAGCGUGGCAAACUGGCUGUGGCUAGACUGCA [C3G G27C C46A] gave a self-cleavage of 0.07.
Work on GGGAGAGCUCAACACAGCGUGGCAAACUGGCUUUGGCUAGACUGCC [C3G G27C G33U] yielded a self-cleavage of 0.15.
With GGGAGAGCUCAACACAGCGUGGCAAACUGGCUGUGCCUAGACUGCC [C3G G27C G36C] the self-cleavage was 0.19.
Work on GGGAGAGCUCAACACAGCGUGGCAAAUUCGCUGUGGCUAGAUUGUC [C3G G27U G29C C42U C45U] yielded a self-cleavage of 0.01.
For GGGAGAGCUCAACACAGCGUGGCAAAUAGGCGGUGGCUAGACUGCC [C3G G27U U28A U32G], the self-cleavage was 0.06.
Work on GGGAGAGCUCAACACAGCGUGGCAAAUUGGCCGUGGCUAGACUGCC [C3G G27U U32C] yielded a self-cleavage of 0.12.
In the case of GGGAGAGCUCAACACAGCGUGGCAAAUUGGCUGCCGCUCGACUGCC [C3G G27U U34C G35C A39C], the self-cleavage is reported as 0.02.
Work on GGGAGAGCUCAACACAGCGUGGCAAAUUGGCUGCGGCUACACUGCC [C3G G27U U34C G40C] yielded a self-cleavage of 0.07.
Variant GGGAGAGCUCAACACAGCGUGGCAAAGUCGCUAUGGCUAAACUGCC [C3G G29C G33A G40A] has a self-cleavage of 0.08.
Variant GGGAGAGCUCAACACAGCGUGGCAAAGUCGCUGUGACUAGACUGCC [C3G G29C G36A] has a self-cleavage of 0.05.
Variant GGGAGAGCUCAACACAGCGUGGCAAAGUCGCUGUGGCUACACUGCC [C3G G29C G40C] has a self-cleavage of 0.02.
Variant GGGAGAGCUCAACACAGCGUGGCAAAGUUGCUUUGGCUAGACUGCC [C3G G29U G33U] has a self-cleavage of 0.08.
GGGAGAGCUCAACACAGCGUGGCAAAGUUGCCGUGGCUCGACUACC [C3G G29U U32C A39C G44A] showed a self-cleavage of 0.05.
Work on GGGAGAGCUCAACACAGCGUGGCAAAGUUGCUGUGGCUAGACCACC [C3G G29U U43C G44A] yielded a self-cleavage of 0.08.
With GGGAGAGCUCAACACAGCGUGGCAAAGUGCCUGUGGCUAGACUGCG [C3G G30C C46G] the self-cleavage was 0.16.
